The values below come from PMC6451091.

The list shows a part of the results. For part of these data: At the low end of the ranking the order means little. For part of these data: Measured with an extract: partners may take part in the binding.

The first assay concerns the target PU.1 (IVT) (UniProt P17947). Description: protein-binding microarray (PBM). The following applies: 20 mM HEPES pH 7.9, 100 mM NaCl, 1 mM DTT, 0.2 mg/mL BSA, 0.02% Triton X-100, 2% milk, 0.4 mg/mL salmon testes DNA; 1 h; temperature not stated; high values mean tight binding; double strand, one strand shown; sequences stand for … in GCCTAGCAC…GTGCTAGGTCTTGATTCGCTTGACGCTGCTG
Consider GGATCCGCTGGGAGGGGTGG, for which the binding signal is -0.363 z-score.

Consider TTATCAGAAGCCAGTGTGGT, for which the binding signal was -0.586 z-score.

On to ATTTCTGCTGCGTGAAACTA, for which the binding signal stood at 0.356 z-score.

In turn, AGATTGTCTGCGTGAAAGTA gave a binding signal of 0.0514 z-score.

Regarding AAAAAAAAAATCAGCTGATT, the binding signal was -0.116 z-score.

Sequence GCCCCCTCCAGTCCCCGCCC returned a binding signal of 1.18 z-score.

With GATATTTACCATTGTGTTAC, the binding signal is -0.182 z-score.

As to GGGAGTTTTAGAAGTTGGAG, the binding signal was -0.271 z-score.

Turning to TCCCTTTTAAATTACTCATT, the binding signal was -0.454 z-score.

Sequence TGAAACAGGAAGTGCAACCA registered a binding signal of 6.44 z-score.

For GGAAGGCCTGCGTGAAAGCA, the binding signal was -0.707 z-score.

Regarding AAGCACAGGGCCAGCCCTAT, the binding signal is -0.486 z-score.

Regarding TCACTCTCCTACACTTGAGG, the binding signal was -0.507 z-score.

As to TCCGCCCCTTCCAGGCAAGA, the binding signal was -0.209 z-score.

For CAAAAGAAATTCCTCAGCCC, the binding signal is 0.123 z-score.

On to TGCCTTTCATTCTGGAATCA, for which the binding signal is -0.254 z-score.

Turning to CTAAGTTCAAATGTTAATTT, the binding signal is -0.511 z-score.

TGTATAATACAAAGCAAAAG: the binding signal is -0.167 z-score.

Turning to GGTTTGAACATGATGCATCA, the binding signal was -0.343 z-score.

Sequence ATTTATGCAACTGATCACAG gave a binding signal of 0.0576 z-score.

Regarding CCTGGTTTAATATCTGCCTG, the binding signal is -0.312 z-score.

TAGGGTTTAAACCTGATCAG: the binding signal is -0.788 z-score.

On to TGCTTGGCTCTCATTCGCCT, for which the binding signal is -0.294 z-score.

With GGGATGTATCCTTGTGGTTG, the binding signal was 0.0905 z-score.

Take AAGCAGAACTTCTATTCCAC: the binding signal worked out at 1.03 z-score.

Take GTATTCACTGCCTGAAACTC: the binding signal was -0.327 z-score.

As to GGCCCTGGGTGGCAGGTTTG, the binding signal is -0.468 z-score.

ACACTCCCACTAGTGCCATG: the binding signal was -0.274 z-score.

CGTGTTTGCGTCCTTGCACG: the binding signal was -0.742 z-score.

TATAAGTTTAGGGTATTTAA displayed a binding signal of 0.0497 z-score.

In turn, CTTCAGAATCCTCTTTTATG registered a binding signal of 0.78 z-score.

As to TCCAGATGTTCTTCACCCAT, the binding signal was -0.52 z-score.

For the sequence GGGGAGACTGCGTGAAAGCA, the binding signal is -0.125 z-score.

TTCCTCACAGTGAGGAAGAG: the binding signal worked out at 5.03 z-score.

Take CAGTGACTCACGCCCATAAT: the binding signal was -0.287 z-score.

In the case of AAGAAAGGGGAAAAGAAAGG, the binding signal was 1.16 z-score.

In the case of CACTTTCAGGGCCCCTGCTG, the binding signal was -0.716 z-score.

Turning to CTGGGGTTTTGTTTAGATAG, the binding signal is -0.293 z-score.

For GAAAGCAACTTTCTACCTGA, the binding signal was 0.301 z-score.

Regarding CGTGTCACCCAGTACGCGGC, the binding signal was -0.566 z-score.

A further assay deals with PU.1 (endogenous, THP-1 nuclear extract) (UniProt P17947). Put plainly: nuclear extract protein-binding microarray (nextPBM). The following applies: 20 mM HEPES pH 7.9, 100 mM NaCl, 1 mM DTT, 0.2 mg/mL BSA, 0.02% Triton X-100, 2% milk, 0.4 mg/mL salmon testes DNA; 1 h; temperature not stated; high values mean tight binding; double strand, one strand shown; sequences stand for … in GCCTAGCAC…GTGCTAGGTCTTGATTCGCTTGACGCTGCTG
For GGATCCGCTGGGAGGGGTGG, the binding signal was -0.163 z-score.

TTATCAGAAGCCAGTGTGGT: the binding signal is -0.483 z-score.

As for ATTTCTGCTGCGTGAAACTA, the binding signal was -0.158 z-score.

Regarding AGATTGTCTGCGTGAAAGTA, the binding signal is -0.446 z-score.

On to AAAAAAAAAATCAGCTGATT, for which the binding signal is -0.317 z-score.

For the sequence GCCCCCTCCAGTCCCCGCCC, the binding signal was -0.54 z-score.

Regarding GATATTTACCATTGTGTTAC, the binding signal is -0.36 z-score.

In the case of GGGAGTTTTAGAAGTTGGAG, the binding signal was -0.596 z-score.

As for TCCCTTTTAAATTACTCATT, the binding signal was -0.489 z-score.

Sequence TGAAACAGGAAGTGCAACCA showed a binding signal of 6.6 z-score.

For the sequence GGAAGGCCTGCGTGAAAGCA, the binding signal was -0.401 z-score.

In the case of AAGCACAGGGCCAGCCCTAT, the binding signal was -0.193 z-score.

TCACTCTCCTACACTTGAGG: the binding signal is -0.375 z-score.

Regarding TCCGCCCCTTCCAGGCAAGA, the binding signal was -0.22 z-score.

CAAAAGAAATTCCTCAGCCC: the binding signal is 0.0467 z-score.

As to TGCCTTTCATTCTGGAATCA, the binding signal is -0.137 z-score.

For CTAAGTTCAAATGTTAATTT, the binding signal is -0.433 z-score.

In the case of TGTATAATACAAAGCAAAAG, the binding signal was -0.337 z-score.

GGTTTGAACATGATGCATCA: the binding signal was -0.861 z-score.

Take ATTTATGCAACTGATCACAG: the binding signal was 0.00426 z-score.

As to CCTGGTTTAATATCTGCCTG, the binding signal is -0.278 z-score.

As for TAGGGTTTAAACCTGATCAG, the binding signal is -0.387 z-score.

As to TGCTTGGCTCTCATTCGCCT, the binding signal is -0.315 z-score.

On to GGGATGTATCCTTGTGGTTG, for which the binding signal amounted to 0.178 z-score.

For AAGCAGAACTTCTATTCCAC, the binding signal was found to be 1.12 z-score.

Turning to GTATTCACTGCCTGAAACTC, the binding signal is -0.635 z-score.

For GGCCCTGGGTGGCAGGTTTG, the binding signal is -0.233 z-score.

Take ACACTCCCACTAGTGCCATG: the binding signal was -0.112 z-score.

In the case of CGTGTTTGCGTCCTTGCACG, the binding signal is -0.284 z-score.

For the sequence TATAAGTTTAGGGTATTTAA, the binding signal is -0.232 z-score.

Sequence CTTCAGAATCCTCTTTTATG registered a binding signal of 0.302 z-score.

In the case of TCCAGATGTTCTTCACCCAT, the binding signal was -0.136 z-score.

With GGGGAGACTGCGTGAAAGCA, the binding signal was -0.585 z-score.

In turn, TTCCTCACAGTGAGGAAGAG gave a binding signal of 5.69 z-score.

As to CAGTGACTCACGCCCATAAT, the binding signal was -0.191 z-score.

Turning to AAGAAAGGGGAAAAGAAAGG, the binding signal amounted to 0.772 z-score.

In the case of CACTTTCAGGGCCCCTGCTG, the binding signal was -0.294 z-score.

For the sequence CTGGGGTTTTGTTTAGATAG, the binding signal was -0.517 z-score.

Take GAAAGCAACTTTCTACCTGA: the binding signal was -0.111 z-score.

Regarding CGTGTCACCCAGTACGCGGC, the binding signal was -0.137 z-score.

The target of the next assay is T1, FLI1 (endogenous, THP-1 nuclear extract) (UniProt Q01543).
T1 sequence: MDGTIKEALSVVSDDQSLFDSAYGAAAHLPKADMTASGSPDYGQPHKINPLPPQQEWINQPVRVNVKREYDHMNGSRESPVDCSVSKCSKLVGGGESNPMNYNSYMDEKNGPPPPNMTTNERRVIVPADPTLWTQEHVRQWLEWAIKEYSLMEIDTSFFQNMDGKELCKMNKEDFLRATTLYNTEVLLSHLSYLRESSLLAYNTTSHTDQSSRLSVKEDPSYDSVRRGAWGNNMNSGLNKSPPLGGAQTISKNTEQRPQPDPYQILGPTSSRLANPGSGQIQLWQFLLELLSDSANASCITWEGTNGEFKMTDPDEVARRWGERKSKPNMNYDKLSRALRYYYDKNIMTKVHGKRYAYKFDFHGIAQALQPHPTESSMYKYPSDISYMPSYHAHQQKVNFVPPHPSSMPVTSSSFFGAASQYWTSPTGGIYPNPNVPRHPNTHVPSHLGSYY
The description is as above. Conditions: 20 mM HEPES pH 7.9, 100 mM NaCl, 1 mM DTT, 0.2 mg/mL BSA, 0.02% Triton X-100, 2% milk, 0.4 mg/mL salmon testes DNA; 1 h; temperature not stated; high values mean tight binding; double strand, one strand shown; sequences stand for … in GCCTAGCAC…GTGCTAGGTCTTGATTCGCTTGACGCTGCTG
On to GGATCCGCTGGGAGGGGTGG, for which the binding signal was -0.153 z-score.

Consider TTATCAGAAGCCAGTGTGGT, for which the binding signal is -0.12 z-score.

For the sequence ATTTCTGCTGCGTGAAACTA, the binding signal was -0.217 z-score.

Take AGATTGTCTGCGTGAAAGTA: the binding signal is -0.563 z-score.

For the sequence AAAAAAAAAATCAGCTGATT, the binding signal was found to be 1.13 z-score.

In the case of GCCCCCTCCAGTCCCCGCCC, the binding signal is -0.334 z-score.

GATATTTACCATTGTGTTAC gave a binding signal of 0.0233 z-score.

For GGGAGTTTTAGAAGTTGGAG, the binding signal is -0.421 z-score.

As to TCCCTTTTAAATTACTCATT, the binding signal was -0.115 z-score.

The sequence TGAAACAGGAAGTGCAACCA showed a binding signal of 5.12 z-score.

For the sequence GGAAGGCCTGCGTGAAAGCA, the binding signal was 0.621 z-score.

Regarding AAGCACAGGGCCAGCCCTAT, the binding signal was -1.45 z-score.

The sequence TCACTCTCCTACACTTGAGG had a binding signal of 0.173 z-score.

As to TCCGCCCCTTCCAGGCAAGA, the binding signal is -0.338 z-score.

Turning to CAAAAGAAATTCCTCAGCCC, the binding signal is -0.206 z-score.

In turn, TGCCTTTCATTCTGGAATCA returned a binding signal of 0.387 z-score.

For the sequence CTAAGTTCAAATGTTAATTT, the binding signal is -0.706 z-score.

On to TGTATAATACAAAGCAAAAG, for which the binding signal is -0.86 z-score.

With GGTTTGAACATGATGCATCA, the binding signal was -0.653 z-score.

As for ATTTATGCAACTGATCACAG, the binding signal is -0.0813 z-score.

With CCTGGTTTAATATCTGCCTG, the binding signal is -0.0117 z-score.

Turning to TAGGGTTTAAACCTGATCAG, the binding signal is -1.41 z-score.

Regarding TGCTTGGCTCTCATTCGCCT, the binding signal was -0.816 z-score.

GGGATGTATCCTTGTGGTTG registered a binding signal of 0.913 z-score.

Consider AAGCAGAACTTCTATTCCAC, for which the binding signal was -0.0906 z-score.

Turning to GTATTCACTGCCTGAAACTC, the binding signal is -0.821 z-score.

In the case of GGCCCTGGGTGGCAGGTTTG, the binding signal was found to be 0.03 z-score.

With ACACTCCCACTAGTGCCATG, the binding signal was -0.585 z-score.

Turning to CGTGTTTGCGTCCTTGCACG, the binding signal was -0.922 z-score.

For TATAAGTTTAGGGTATTTAA, the binding signal is -0.00259 z-score.

In turn, CTTCAGAATCCTCTTTTATG came in with a binding signal of 0.265 z-score.

As for TCCAGATGTTCTTCACCCAT, the binding signal is -0.257 z-score.

For GGGGAGACTGCGTGAAAGCA, the binding signal was -0.81 z-score.

Sequence TTCCTCACAGTGAGGAAGAG showed a binding signal of 3.04 z-score.

For CAGTGACTCACGCCCATAAT, the binding signal was -0.564 z-score.

AAGAAAGGGGAAAAGAAAGG showed a binding signal of 0.267 z-score.

For CACTTTCAGGGCCCCTGCTG, the binding signal is -0.482 z-score.

CTGGGGTTTTGTTTAGATAG: the binding signal is -0.245 z-score.

In turn, GAAAGCAACTTTCTACCTGA displayed a binding signal of 0.167 z-score.

Turning to CGTGTCACCCAGTACGCGGC, the binding signal is -0.806 z-score.
